# Reference: the supplement of paper PMC4604168 (melanoma cell lines)
# This is one part of the list. Many values rest on one well or one pass, so single values are uncertain.
# Tested on: MeWo
# Assay: cell count relative to DMSO control; melanoma cells; higher = more viable cells
# Settings: library dose: standard library concentration; 72 h
# 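Further: cells treated in 1,536-well plates, then fixed and DAPI-stained, with nuclei counted from automated high-throughput microscope images.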
row,Structure (SMILES),cell count [%]
1,"O=C(O)c1ccc(-c2c[nH]c3ncc(-c4ccccc4)cc23)cc1C1CCCC1 + COc1cc2ncnc(Nc3ccc(Oc4ccccc4)cc3)c2cc1OC [SrcI1] (first compound 0.8 µM, partner dose 10 µM)",65.7
2,"O=c1[nH]nc(Sc2ncc([N+](=O)[O-])s2)n1-c1ccc2c(c1)OCCO2 + CC(C)C[C@H](NC(=O)[C@H](Cc1ccccc1)NC(=O)c1cnccn1)B(O)O [Bortezomib] (first compound 1 µM, partner dose 0.005 µM)",16.5
3,"O=c1[nH]nc(Sc2ncc([N+](=O)[O-])s2)n1-c1ccc2c(c1)OCCO2 + CCc1ccc(CCOc2ccc(CC3SC(=O)NC3=O)cc2)nc1 [pioglitazone] (first compound 1 µM, partner dose 10 µM)",101
4,"C[C@@H]1CCN(C(=O)CC#N)C[C@@H]1N(C)c1ncnc2[nH]ccc12 + COc1ccc(-c2ccc3c(N4CCOCC4)nc(N4C[C@@H](C)O[C@@H](C)C4)nc3n2)cc1CO [KU0063794] (first compound 5 µM, partner dose 0.1 µM)",78.1
5,"C[C@@H]1CCN(C(=O)CC#N)C[C@@H]1N(C)c1ncnc2[nH]ccc12 + O=S(=O)(c1ccccc1)N(CC(F)(F)F)c1ccc(C(O)(C(F)(F)F)C(F)(F)F)cc1 [T0901317] (first compound 5 µM, partner dose 7 µM)",91.4
